Assay results published in PubChem BioAssay AID686979 (National Center for Advancing Translational Sciences (NCATS), 2013).
In all, about 420,000 compounds went through this assay and about 50,000 (12%) were called active. This list was built around the results that the source calls inconclusive (neither active nor inactive); the mix of calls is not that of the screen. Calls follow the shape of the dose curve; as a rule, active = well fitted inhibition curve with a large enough effect; inconclusive = small, poorly fitted or top-dose-only effect; inactive = flat fitted curve, though single readings scatter. Potencies of inconclusive entries are left out as doubtful fits.

Test: qHTS for Inhibitors of human tyrosyl-DNA phosphodiesterase 1 (TDP1): qHTS in cells in presence of CPT; also: nearly all actives have a fitted effect of over 55% in size
Settings: chicken DT40 Tdp1-/-;hTDP1 cells + 20 nM CPT, ATP luminescence, 48 h; series mostly up to 46.2 µM
Outline: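 Chicken DT40 Tdp1-/- cells complemented with human TDP1, 400 cells/well, exposed to compounds plus 20 nM camptothecin for at least 48 h at 37 C; viability read as ATP content by CellTiter-Glo luminescence.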
Potency is read from the fitted curve at half-maximal effect; tags tell the direction and shape of the fitted curve.

Question: With `O=C(Nc1nc2c(s1)CCCC2)c1cc(-c2ccncc2)nc2ccccc12` as the compound, how does the Potency read?
Answer: Its Potency is inconclusive [inhibitor, single point].

Question: With `COc1cc2c(cc1OC)-c1cc(N3CCCCCC3)nc(=O)n1CC2` as the compound, how does the Potency read?
Answer: Its Potency is inconclusive [inhibitor, single point].

Question: For `CC(C)C1Nc2ccc(S(=O)(=O)N3CCOCC3)cc2NC1=O` (stereo not drawn), which Potency is on record?
Answer: Its Potency is inconclusive [inhibitor, single point].

Question: With `Cc1ccc(S(=O)(=O)N2CC=C(c3c(C)n(CC(=O)N4CCCC4)c4ccccc34)CC2)cc1C` as the compound, how does the Potency read?
Answer: The Potency was inconclusive [inhibitor, single point].

Question: With `CC1(C)C(=O)CC[C@@]2(C)C1CC(O)[C@@]1(C)C3=CC(=O)OC(c4ccoc4)[C@]3(C)CCC21` (stereo partly drawn) as the compound, how does the Potency read?
Answer: The Potency was inconclusive [inhibitor, single point].

Question: Which Potency does the source give for `COc1ccc(C(=O)Oc2ccc3oc(=O)sc3c2)cc1` here?
Answer: The Potency was active: 13 µM.

Question: With `CC(=O)Nc1cccc(-c2ccnc3c2CC(C(=O)Nc2ccccc2)O3)c1` (stereo not drawn) as the compound, how does the Potency read?
Answer: The Potency was inconclusive [inhibitor, partial curve, poor fit].

Question: With `CCOC(=O)N1CCC2(CC1)C(C(=O)C13CC4CC(CC(C4)C1)C3)C2(C#N)C#N` (stereo not drawn) as the compound, how does the Potency read?
Answer: Its Potency is inconclusive [inhibitor, partial curve].

Question: With `Cc1cccc(Nc2ncc3c(n2)CC(c2ccco2)CC3=O)c1` (stereo not drawn) as the compound, how does the Potency read?
Answer: Its Potency is inconclusive [inhibitor, single point].

Question: For `Cc1noc(C)c1-c1ccc(C(=O)NCc2cccc(Cl)c2)c2occc12`, which Potency is on record?
Answer: The Potency was inconclusive [inhibitor, single point].

Question: With `COC(=O)c1cn(CC(=O)N2CCCCCC2)c2ccccc12` as the compound, how does the Potency read?
Answer: Its Potency is “inactive”.

Question: Which Potency does the source give for `CCN(CC)Cc1cc(Oc2ccc(O)c(CN(CC)CC)c2)ccc1O` here?
Answer: Its Potency is active: 20.6 µM.

Question: For `CCOC(=O)[C@]12CCCC=C1N(Cc1cccc3ccccc13)C(=O)[C@H](CC(=O)N1CCN(C(=O)c3ccco3)CC1)C2`, which Potency is on record?
Answer: Its Potency is inconclusive [inhibitor, single point].

Question: With `CCC(CC)c1nn2c(=O)cc(COc3ccc(NC(=O)c4cccc(C)c4)cc3)nc2s1` as the compound, how does the Potency read?
Answer: Its Potency is “inactive”.

Question: Which Potency does the source give for `O=C(CCC(=O)N1CCSc2ccccc21)Nc1ccc(Cl)cc1` here?
Answer: The Potency was active: 14.6 µM.

Question: With `COc1cc(/C=C/C(=O)c2ccc3c(c2)OCO3)cc(OC)c1OC` as the compound, how does the Potency read?
Answer: The Potency was inconclusive [inhibitor, single point].

Question: With `CC(=O)OC1CC(OC(C)=O)[C@]2(C)C(CC(O)[C@]3(C)C2CC[C@@]2(C)C(c4ccoc4)OC(=O)C4O[C@]432)C1(C)C` (stereo partly drawn) as the compound, how does the Potency read?
Answer: Its Potency is “inactive”.

Question: For `Cc1cc(C(F)(F)F)c(C#N)c(N2CCOCC2)n1`, which Potency is on record?
Answer: Its Potency is inconclusive [inhibitor, single point].
